These results are taken from paper PMC4336329 (PLoS ONE, 2015).

About 14,000 (4.5%) of roughly 310,000 compounds showed an effect of 50% or more. The effect is printed as a negative number. The list shows a part of the results.
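Further: peak tail current of the secondary pulse compared with the same well before compound.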

Sequence of human ether-à-go-go-related gene (hERG) potassium channel (Q12809 whole entry, looked up): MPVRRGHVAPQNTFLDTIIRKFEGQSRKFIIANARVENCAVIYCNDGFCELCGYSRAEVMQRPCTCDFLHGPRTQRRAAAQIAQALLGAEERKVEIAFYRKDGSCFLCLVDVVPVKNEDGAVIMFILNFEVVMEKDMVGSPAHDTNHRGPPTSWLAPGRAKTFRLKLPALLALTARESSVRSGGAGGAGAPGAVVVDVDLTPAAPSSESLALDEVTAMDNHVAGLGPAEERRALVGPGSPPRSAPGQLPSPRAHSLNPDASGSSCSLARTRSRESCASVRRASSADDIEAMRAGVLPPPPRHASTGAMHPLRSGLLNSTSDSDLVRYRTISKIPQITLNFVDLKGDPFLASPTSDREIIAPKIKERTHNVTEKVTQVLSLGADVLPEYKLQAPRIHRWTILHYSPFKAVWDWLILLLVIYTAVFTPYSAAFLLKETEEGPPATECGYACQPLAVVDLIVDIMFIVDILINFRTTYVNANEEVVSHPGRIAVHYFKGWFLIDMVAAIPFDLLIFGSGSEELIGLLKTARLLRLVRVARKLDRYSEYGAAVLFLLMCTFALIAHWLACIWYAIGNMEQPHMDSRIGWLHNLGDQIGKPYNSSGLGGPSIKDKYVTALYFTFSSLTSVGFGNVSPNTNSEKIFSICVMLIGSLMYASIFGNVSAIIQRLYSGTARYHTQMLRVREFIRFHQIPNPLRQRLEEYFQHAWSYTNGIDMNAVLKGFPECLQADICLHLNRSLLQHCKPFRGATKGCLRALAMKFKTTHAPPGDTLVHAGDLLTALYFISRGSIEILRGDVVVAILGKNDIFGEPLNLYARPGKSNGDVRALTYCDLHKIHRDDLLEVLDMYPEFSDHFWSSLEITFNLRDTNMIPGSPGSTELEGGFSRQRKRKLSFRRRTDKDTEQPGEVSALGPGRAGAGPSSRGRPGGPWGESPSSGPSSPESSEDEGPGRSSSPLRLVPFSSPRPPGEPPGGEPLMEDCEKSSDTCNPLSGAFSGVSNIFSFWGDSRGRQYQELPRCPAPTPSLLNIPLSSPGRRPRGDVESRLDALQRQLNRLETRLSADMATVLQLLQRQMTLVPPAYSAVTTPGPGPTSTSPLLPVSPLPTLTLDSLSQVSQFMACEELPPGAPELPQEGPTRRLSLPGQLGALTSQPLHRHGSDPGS

This assay concerns the target human ether-à-go-go-related gene (hERG) potassium channel (human, UniProt Q12809). As to the kind of experiment: primary screen, population patch clamp on CHO cells stably expressing hERG.
Regarding `CCN1C(=O)OC2(CCCCC2)C1(C)O` (centres unmarked), the “hERG current change (%, negative = inhibition) at 10uM” value came to 15.4%. The result for `CCN(CC)CCSc1nc(O)c(-c2ccccc2)c(=O)n1-c1ccccc1.Cl` reads 12.1%; that for `CCOC(=O)c1c(C)nsc1NC(=O)c1ccco1`, -4.79%; that for `Cc1ccc(NC(=O)c2cc3ccccc3o2)cc1Cl`, 19.7%. Consider `COc1ccc(-c2nn(-c3ccccc3)cc2C(=O)Nc2nc(CC(C)=O)ns2)cc1`, for which the “hERG current change (%, negative = inhibition) at 10uM” value came to 17.4%.

With `CN1C(=O)CSC1=NCC12CC3CC(CC(C3)C1)C2`, the “hERG current change (%, negative = inhibition) at 10uM” value is recorded as -19.6%. The result for `Cn1nnnc1SCC(=O)NCCCc1ccccc1` reads -10.5%; that for `COc1ccc2ccccc2c1CNCc1ccccn1.Cl`, -51.8%; that for `CCc1nnc(NC(=O)CCC(=O)N2CCN(Cc3ccc(C)cc3C)CC2)s1`, -28.2%.

`O=C(COc1ccccc1[N+](=O)[O-])Nc1cccc(S(=O)(=O)NC2=NCCCCC2)c1`: the “hERG current change (%, negative = inhibition) at 10uM” value is reported as 12.6%.

For `CCOC(=O)c1c(NC(=O)c2nn(CC)cc2Br)sc2c1CCCCC2`, the “hERG current change (%, negative = inhibition) at 10uM” value stood at 8.6%. The result for `COc1ccccc1NC(=O)CCC(=O)N(Cc1ccc(OC)c(OC)c1)c1nccs1` reads 14.8%; that for `CCc1c(C)sc(NC(=O)c2ccc(Br)o2)c1C(=O)OC`, 25.3%. The result for `O=C(Cc1ccccc1)Nc1ccccc1C(=O)Nc1ccccc1` reads -8.32%. Then `Cc1cc(C)n(C(=O)Cc2cn3ccsc3n2)n1`, with 8.89%.

In the case of `Cc1ccc(-c2nn(CCC(=O)O)cc2CCC(=O)O)cc1`, the “hERG current change (%, negative = inhibition) at 10uM” value is recorded as 5.78%. Then `O=C(c1ccco1)N1CCN(C(=S)Nc2cc(F)cc(F)c2)CC1`, with -16.5%; and `Cc1ccc(NC(=S)NC(=O)c2ccc(-c3ccccc3)cc2)c(C)c1`, with 5.77%. As to `O=C(COCc1cc(-c2ccc3c(c2)OCO3)on1)Nc1cccnc1Cl`, the “hERG current change (%, negative = inhibition) at 10uM” value was determined as 13.3%.

Regarding `Cc1cc(C(=O)Nc2ccccc2C)n(-c2ccccc2)n1`, the “hERG current change (%, negative = inhibition) at 10uM” value is given as 16.5%. Then `CCc1nc(SCC(=O)N2CCN(c3ccccc3)CC2)c2oc3ccccc3c2n1`, with -5.14%; and `CCCN1CCC(=O)N([C@H](COc2ccccc2)CC(C)C)CC1`, with -81.9%. Consider `O=C1c2ccccc2C(=O)c2c1cccc2N1CCOCC1`, for which the “hERG current change (%, negative = inhibition) at 10uM” value is -30.4%. For `CN(C)/C=C(\C#N)C(=O)N/N=C/c1ccc(F)cc1`, the “hERG current change (%, negative = inhibition) at 10uM” value was -10.1%. With `O=C(CCCCCCC(=O)Nc1ccccc1)NO`, the “hERG current change (%, negative = inhibition) at 10uM” value worked out at 9.71%. Then `CCCn1cc(CN2CCC(n3nccc3NC(=O)c3ccccc3)CC2)c(C)n1`, with -11%; and `CC(C)(CO)NC(=O)C(Cc1ccccc1)N1C(=O)c2ccccc2C1=O` (centres unmarked), with 17%. The result for `C=C(CO)C1Cc2cc(C(C)=O)ccc2O1` (centres unmarked) reads 8.58%.

With `Cc1c(-n2c(SCC(=O)NC(C)C)nc3ccccc3c2=O)c(=O)n(-c2ccccc2)n1C`, the “hERG current change (%, negative = inhibition) at 10uM” value was 11.1%. With `OCCOCCn1c(C(CO)Nc2nc(-c3ccc(Cl)cc3)cs2)nc2ccccc21` (centres unmarked), the “hERG current change (%, negative = inhibition) at 10uM” value was -23.4%. Take `Cc1noc(C)c1C(=O)Nc1ccc2c(c1)CCC2`: the “hERG current change (%, negative = inhibition) at 10uM” value is -3.4%.

Consider `CCCn1nc(C(=O)NNC(=O)Cc2ccc(S(=O)(=O)N3CCOCC3)s2)c2ccccc2c1=O`, for which the “hERG current change (%, negative = inhibition) at 10uM” value is listed as -27.5%. Then `COCCCN1C(=O)c2ccc(C(=O)NCc3ccco3)cc2C1=O`, with 11%. The result for `CCn1ncc(C2=NOC(C(=O)NCCc3ccccc3)C2)c1C` (centres unmarked) reads 5.33%. Consider `CCOC(=O)Nc1ccc2c(c1)N(C(=O)CCN1CCN(CCO)CC1)c1ccccc1S2.Cl`, for which the “hERG current change (%, negative = inhibition) at 10uM” value was -27.5%.

Regarding `COCCNC(=O)c1ccc2c(c1)ncn2-c1cccc(C)c1`, the “hERG current change (%, negative = inhibition) at 10uM” value is on record as -5.84%. As for `CCc1ccccc1OC[C@@H](O)CN[C@H]1CCCc2ccccc21.O=C(O)C(=O)O`, the “hERG current change (%, negative = inhibition) at 10uM” value is listed as -24.7%. The result for `S=C(NCc1ccc(Cl)c(Cl)c1)Nc1ccc2c(c1)OCO2` reads -6.19%. Take `Cc1c(C(=O)OCC(=O)N2CCC(C)CC2)oc2ccccc12`: the “hERG current change (%, negative = inhibition) at 10uM” value is listed as -29.6%. As for `COc1ccccc1-c1ccc2nnc(SCC(=O)N3CCCC3)n2n1`, the “hERG current change (%, negative = inhibition) at 10uM” value is reported as 5.43%. Consider `O=C(C1CCN(S(=O)(=O)c2cccc3cccnc23)CC1)N1CCN(C2CCCC2)CC1`, for which the “hERG current change (%, negative = inhibition) at 10uM” value is listed as 11.5%. The result for `CCc1ccc(C(=O)Nc2cccc(-c3nn[nH]n3)c2)s1` reads 16.9%; that for `COc1ccc(CC(NC(C)=O)C(=O)N2CCN(C(=O)Nc3cccc(F)c3)CC2)cc1OC` (centres unmarked), 13.6%; that for `COc1cc(CCC(=O)Nc2ccc(Cl)c(C(F)(F)F)c2)cc(OC)c1OC`, 13.1%. For `CC1CC(C)CN(c2ccc(NS(=O)(=O)c3ccccc3)cc2C(=O)O)C1` (centres unmarked), the “hERG current change (%, negative = inhibition) at 10uM” value is -10.6%. Consider `CCN(CC)c1nc2ccccc2[nH]c1=O`, for which the “hERG current change (%, negative = inhibition) at 10uM” value was -2.02%.

Turning to `Cc1ccc(Nc2nnc(-c3ccncc3)s2)c(Br)c1`, the “hERG current change (%, negative = inhibition) at 10uM” value is listed as -59.3%. Take `Cc1cc(NC(=O)CSc2nc(N)c(NC(=O)c3ccccc3F)c(=O)[nH]2)no1`: the “hERG current change (%, negative = inhibition) at 10uM” value amounted to 27.7%. As to `CC(C)(CNS(=O)(=O)c1ccc2ccccc2c1)N1CCOCC1`, the “hERG current change (%, negative = inhibition) at 10uM” value is recorded as -2.89%. The result for `C[C@H](NC(=O)[C@@H]1Cc2ccccc2CN1)C(=O)NCC1CCCO1` (some centres unmarked) reads 26.3%. Turning to `CCCOc1ccccc1/C=N/NC(=O)C1CC1`, the “hERG current change (%, negative = inhibition) at 10uM” value is 3.97%.

In the case of `O=C(O)CCSc1nnc(-c2ccncc2)n1-c1ccccc1`, the “hERG current change (%, negative = inhibition) at 10uM” value was found to be 7.13%. In the case of `CC1C/C(=C/c2ccco2)C(=O)/C(=C/c2ccco2)C1` (centres unmarked), the “hERG current change (%, negative = inhibition) at 10uM” value turned out to be 1.66%. Consider `Cc1ccc(-c2ccc(CCC(=O)O)n2CC2CCCO2)cc1` (centres unmarked), for which the “hERG current change (%, negative = inhibition) at 10uM” value is on record as 8.23%. Then `CCOC(=O)C1CCCN(C(=O)COc2ccccc2F)C1` (centres unmarked), with 15.5%; and `CC(=O)Nc1ccc(NC(=O)C(C)OC(=O)c2cccc(S(=O)(=O)N3CCCC3)c2)cc1` (centres unmarked), with 10.4%. On to `CN(CC(=O)Nc1cccc(F)c1)C(=O)c1sc2ccccc2c1Cl`, for which the “hERG current change (%, negative = inhibition) at 10uM” value is listed as -30.8%. Turning to `CCNS(=O)(=O)c1ccc(NS(C)(=O)=O)cc1`, the “hERG current change (%, negative = inhibition) at 10uM” value is on record as 1.37%. The result for `Cc1nc2cc(O)ccc2n1C` reads 13.1%; that for `O=C(CN1CCSCC1)N/N=C/c1ccc(F)c(F)c1`, -14.8%. Then `O=C1COc2ccc(C(=O)c3ccccc3C(=O)NCc3ccccc3)cc2N1`, with -5.41%; and `CN1C(=O)c2ccccc2C(C(=O)O)C1c1cccc(Cl)c1` (centres unmarked), with 0.8%.

In the case of `CCCCn1c(-c2ccco2)n[nH]c1=S`, the “hERG current change (%, negative = inhibition) at 10uM” value is reported as 16.9%. Take `S=C(NCCCN1CCOCC1)Nc1ccc(Nc2ccccc2)cc1`: the “hERG current change (%, negative = inhibition) at 10uM” value is recorded as -15.8%. With `COc1ccccc1N1CCN(/N=C/c2cccc(O)c2)CC1`, the “hERG current change (%, negative = inhibition) at 10uM” value worked out at 5.78%. The result for `CC1CCCC(NC(=O)CN(C)S(=O)(=O)c2cnc[nH]2)C1C` (centres unmarked) reads 25.5%. Then `Cc1ccc(C)c(NC(=O)Cn2ccn(-c3ccc4c(c3)OCO4)c(=O)c2=O)c1`, with 9.83%; and `COc1ccccc1CNC(=O)COC(=O)c1cnccn1`, with 3.3%; and `Cc1nc(CC(=O)N2CCN(c3cccc(C)c3C)CC2)cs1`, with 1.31%. For the compound `COc1ccc(CC(=O)OCC(=O)NC(=O)NC23CC4CC(CC(C4)C2)C3)cc1`, the “hERG current change (%, negative = inhibition) at 10uM” value is -28.7%.

In the case of `CC(C)CCC1(CN2CCCC2=O)C(=O)NC(=O)NC1=O`, the “hERG current change (%, negative = inhibition) at 10uM” value came to 9.34%. As for `c1ccc(-c2ccc(OCCCn3cncn3)cc2)cc1`, the “hERG current change (%, negative = inhibition) at 10uM” value was -38%. The result for `CCOc1cc(S(=O)(=O)NC2CCCC2)ccc1Cl` reads 11%; that for `CCOc1ccccc1N1CCN(C(=O)Cc2ccc(S(=O)(=O)N3CCOCC3)s2)CC1`, -43.9%. Turning to `c1ccc(COc2nsnc2N2CCOCC2)cc1`, the “hERG current change (%, negative = inhibition) at 10uM” value is recorded as 6.37%. The result for `COc1ccc(OCC(=O)OCCNC(=O)c2cccnc2)cc1.Cl` reads 10.1%; that for `CN(Cc1ccccc1)S(=O)(=O)c1ccc(OCC(=O)N2CCOCC2)cc1`, -26.6%; that for `CN1CCN(C(=O)c2ccc3c(c2)NC(=O)C(C)(C)O3)CC1`, -9.4%.

`COc1ccccc1CNC(=O)C(=O)NCC(c1ccco1)N1CCOCC1` (centres unmarked): the “hERG current change (%, negative = inhibition) at 10uM” value turned out to be 6.23%. Then `COc1ccc(CCNC2CCCCC2)cc1OC.Cl`, with 4.48%; and `CCc1nc(SCC(=O)Nc2nnc(CC(C)C)s2)n[nH]1`, with 21.8%; and `Cc1cc(C)c(NC(=O)CNC(=O)c2ccc(-n3cncn3)c([N+](=O)[O-])c2)c(C)c1`, with -12.8%.

Take `CC(C)NC(=O)NC(=O)CN1C(=O)NC2(CCc3ccccc3C2)C1=O` (centres unmarked): the “hERG current change (%, negative = inhibition) at 10uM” value is 1.84%. Consider `O=C(CCN1CCCC1=O)NC1CCCc2c1cnn2-c1ccccc1F` (centres unmarked), for which the “hERG current change (%, negative = inhibition) at 10uM” value is 6%. The result for `CCN1C(=O)c2cccc3c(S(=O)(=O)Nc4ccc(O)c(C(=O)O)c4)ccc1c23` reads 22.9%; that for `CC1CCCN(C(=O)Cn2cnc3c2c(=O)n(C)c(=O)n3C)C1` (centres unmarked), 9.85%. Then `CC(C)CCSc1nc2c(c(=O)[nH]c(=O)n2C)n1CCc1ccccc1`, with 1.17%; and `Cc1ccc(C)c(Nc2nc3ccccc3n3cnnc23)c1`, with -0.791%; and `COc1cc(Cn2nnc3ccccc32)cc(Br)c1O`, with 3%. On to `O=C(c1cc([N+](=O)[O-])cc([N+](=O)[O-])c1)N(Cc1nnc(-c2ccccc2Cl)o1)C1CC1`, for which the “hERG current change (%, negative = inhibition) at 10uM” value is reported as -36.8%. The result for `CC(/C=C1\SC(=S)N(CC(=O)N2CCN(c3ccccc3)CC2)C1=O)=C\c1ccccc1` reads 0.119%. For `CCOC(=O)C1CCN(C(=O)c2cccc(C(=O)N3CCC(C(=O)OCC)CC3)c2)CC1`, the “hERG current change (%, negative = inhibition) at 10uM” value was 4.75%.
